# Source: paper PMC6919601, “Identification of Plasmodium dipeptidyl aminopeptidase allosteric inhibitors by high throughput screening” (PLoS ONE, 2019)
# Screen size: about 110,000 compounds; about 230 (0.21%) showed an effect of 50% or more. The list shows a part of the results.
# Target: DPAP1 (Plasmodium falciparum, UniProt Q8IIJ9)
# Test: primary screen, percent inhibition; read by cleavage of a fluorogenic dipeptide substrate; higher = more effect of the substance
# Design: species or system P. falciparum D10 trophozoite lysates; single well
# 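Further: 30 min substrate incubation versus DMSO and 10 µM JCP410 controls.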
# DPAP1, sequence (Q8IIJ9 whole entry, looked up): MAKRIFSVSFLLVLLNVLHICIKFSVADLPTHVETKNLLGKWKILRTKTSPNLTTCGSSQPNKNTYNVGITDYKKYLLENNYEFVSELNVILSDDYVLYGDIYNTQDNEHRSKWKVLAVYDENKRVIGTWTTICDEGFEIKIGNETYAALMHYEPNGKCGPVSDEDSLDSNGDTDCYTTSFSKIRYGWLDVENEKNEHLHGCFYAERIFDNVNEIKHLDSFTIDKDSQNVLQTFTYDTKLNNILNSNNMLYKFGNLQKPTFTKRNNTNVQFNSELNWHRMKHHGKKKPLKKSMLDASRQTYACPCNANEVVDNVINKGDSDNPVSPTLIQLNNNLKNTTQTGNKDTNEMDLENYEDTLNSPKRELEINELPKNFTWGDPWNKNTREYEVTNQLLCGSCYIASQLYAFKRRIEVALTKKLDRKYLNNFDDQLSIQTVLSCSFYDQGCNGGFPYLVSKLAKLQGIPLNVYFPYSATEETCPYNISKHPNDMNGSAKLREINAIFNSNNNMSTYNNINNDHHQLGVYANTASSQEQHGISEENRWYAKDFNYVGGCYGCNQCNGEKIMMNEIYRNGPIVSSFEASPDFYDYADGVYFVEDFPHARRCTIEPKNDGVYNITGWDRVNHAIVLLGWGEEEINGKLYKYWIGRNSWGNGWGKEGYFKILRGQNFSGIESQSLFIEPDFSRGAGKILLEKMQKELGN
row,Structure (SMILES),% Inhibition @ 10 uM
1,CCCN1C(=O)c2cc(C(=O)NCc3ccc(OC)cc3)ccc2C1O (centres unmarked),-1.24%
2,O=c1[nH]c(=S)[nH]c2sc3c(c12)CCN(Cc1ccccc1)C3,1.4%
3,COc1cccc(C(=O)N2C(C)CCCC2C)c1 (centres unmarked),-3.35%
4,O=C(CSc1nc(-c2ccco2)cc(C(F)(F)F)n1)Nc1ccccc1,3.04%
5,COc1cccc(C(=O)Nc2nc(-c3nnn(-c4cc(OC)ccc4OC)c3C)ns2)c1,-4.55%
6,O=C(Nc1ccccc1[N+](=O)[O-])C12CC3CC(CC(C3)C1)C2,-4.21%
7,O=C(O)C1CC=CCC1C(=O)Nc1ccc(Br)c2cccnc12 (centres unmarked),-2.07%
8,COCC(C)NCc1cccc(OC)c1 (centres unmarked),0.916%
9,CC(NC(=O)C1CC1c1ccccc1)c1ccccc1 (centres unmarked),-2.51%
10,COc1cc(C)nc(N(C)S(=O)(=O)c2ccc(C)cc2)n1,17%
11,CCOc1cc(/C=C2/C(=N)N3C(=NC2=O)SN=C3S(C)(=O)=O)ccc1OCc1ccccc1,5.06%
12,CC1=C(C(=O)OCC(C)C)C(c2ccc(Br)cc2)NC(=O)N1 (centres unmarked),-1.37%
13,O=C([C@@H](c1ccccc1)N1Cc2ccccc2C1=O)N1CCN(Cc2ccccc2)CC1,-2.25%
14,CCn1cc(CCC(=O)NCCc2ccc(Cl)cc2)c2ccccc21,-3.44%
15,CC1=NN(C(=O)CCCc2ccccc2)C(O)(C(F)(F)F)C1 (centres unmarked),3.05%
16,Cc1ccccc1C(=O)Nc1scc(CC(C)C)c1C(=O)O,1.25%
17,c1ccc2sc(Sc3ncnc4sc5c(c34)CCCC5)nc2c1,1.21%
18,Cc1nn(CCCC(=O)NC(C)CCc2ccccc2)c(=O)c2c1sc1ccccc12 (centres unmarked),-4.59%
19,COc1ccc(C(O)(Cc2ccccc2)C(CN2CCOCC2)c2ccccc2)cc1 (centres unmarked),-0.551%
20,CC(C)OCCCNc1cnn(C23CC4CC(CC(C4)C2)C3)c(=O)c1Cl,-5.27%
21,O=C(Cn1ncn2cccc2c1=O)NCCCc1ccccc1,-1.65%
22,Cc1ccc(NC(=O)CCn2nc(C(F)(F)F)cc2C)nc1,-9.6%

row,Structure (SMILES),% Inhibition @ 10 uM
1,CC(C)C[C@H](NC(=O)c1ccc(F)c(F)c1)C(=O)NCC#N,0.174%
2,CC(Nc1nc2c(S(=O)(=O)c3ccccc3)nnn2c2ccsc12)c1ccccc1 (centres unmarked),-8.43%
3,CCCCn1c(=O)c2oc3ccccc3c2n(Cc2ccccc2F)c1=O,1.68%
4,CCC(NC(=O)c1cncc(Br)c1)c1ccccc1 (centres unmarked),-2.74%
5,Oc1ccc(/C=N/n2cnnc2)cc1,23.8%
6,CCN1CCN(CC(=O)c2ccc3cc[nH]c3c2)CC1,2.13%
7,CCCNC(=O)c1cc2sccc2n1Cc1ccc(C)cc1,-1.37%
8,O=C(NCc1cccnc1)/C(=C/c1cccnc1)NC(=O)c1ccccc1,0.27%
9,O=C(O)CCNC(=O)c1ccc(C(F)(F)F)cc1,-3.04%
10,COc1ccc(CO/C(O)=C2\C(C)=NC3=C(C(=O)CCC3)C2c2cccs2)cc1 (centres unmarked),-1.06%
11,COc1ccc(N2C(N)=C(C#N)C(c3ccc4c(c3)OCO4)C3=C2CCCC3=O)cc1 (centres unmarked),-4.48%
12,CCOc1cc(C(=O)N2CCC(C(N)=O)CC2)cc(OCC)c1OCC,6.61%
13,COc1ccc(-c2noc(CNC(=O)CCN3C(=O)c4ccccc4C3=O)n2)cc1,1.9%
14,Cc1nnc2c(NCc3ccccc3)nc3ccccc3n12,-3.49%
15,COC(=O)C1=CN(C)C=C(C(=O)OC)C1c1ccccc1OCc1ccccc1,13.3%
16,Cc1ccnc(Nc2nc(-c3sc(C)nc3C)cs2)c1,3.38%
17,Cc1c(C(=O)NCc2ccc3c(c2)OCO3)oc2ccc(S(=O)(=O)N(C)C3CCCCC3)cc12,9.56%
18,COc1ccc(OC)c(CCNCc2c(C(=O)O)n(C)c3cc(OC)ccc23)c1,-3.27%
19,CCOC(=O)c1c(C)nc2n(CCN3CCCCC3)c3ccccc3n12,0.0538%
20,Oc1ccc(CN2CCN(c3ccc(Cl)cc3)CC2)cc1,4.62%
21,C=C(C)COc1ccc2c(=O)c(Oc3ccc(C(=O)OCC)cc3)coc2c1,-2.91%
22,CC(C)(C)NS(=O)(=O)c1ccc(NC(=O)c2ccc(Cl)cc2)cc1,2.13%

row,Structure (SMILES),% Inhibition @ 10 uM
1,CN1C(=O)NC(=O)/C(=C/c2cc3c(cc2Cl)OCO3)C1=O,3.95%
2,COc1ccc(CN2CC(C)CC(C)C2)c(OC)c1 (centres unmarked),-1.81%
3,C=CCNC(=O)CSc1nc2nc(C)cc(C)n2n1,2.99%
4,CCCCN(C)C(=O)CCNC(=O)Cn1ccc2ccccc2c1=O,7.85%
5,Cc1cc(O)ccc1NC(=O)c1ccccc1C(=O)O,-2.65%
6,Cc1ccccc1/C=C(/C#N)C(=O)NCc1ccccc1,-0.267%
7,O=C(NCCC1=CCCCC1)C(NS(=O)(=O)c1cccc2nsnc12)c1ccccc1 (centres unmarked),-5.1%
8,N#Cc1nc(COc2ccccc2)oc1NCc1ccccc1Cl,5.54%
9,COc1ccc(OC)c(C2C(C#N)=C(N)Oc3cc(O)c(Cl)cc32)c1 (centres unmarked),1.42%
10,OCCN1CCN(Cc2ccc(Br)s2)CC1,1.83%
11,c1cc2c(cc1OC1CCNCC1)OCO2,0.635%
12,CCOCCCn1c(=N)c(S(=O)(=O)c2ccc(C)cc2)cc2c(=O)n3cc(C)ccc3nc21,-1.52%
13,COc1ccc(C2=CC(c3ccc(OC)cc3OC)n3ncnc3N2)cc1 (centres unmarked),4.86%
14,CCOc1ccc(/C=C/c2nc(C#N)c(N3CC(C)OC(C)C3)o2)cc1 (centres unmarked),2.54%
15,CCN(CC)C(=O)CSc1nc2sc3c(c2c(=O)n1C)CCC3,-4.76%
16,O=C(c1ccccc1F)N(Cc1ccco1)Cc1ccccc1Cl,-5.91%
17,CSc1ccc(CCNC(=O)Nc2cn(C)c(=O)c3ccccc23)cc1,5.85%
18,Nc1sc2c(c1C(=O)NC1CCCCC1)CCC2,0.389%
19,CCOC(=O)C1=C(C)N=C(C)/C(=C(/O)OCC)C1c1ccc(Cl)c(Cl)c1 (centres unmarked),-1.85%
20,CCO/C(O)=C1\C(C)=NC(=S)NC1c1cc(OC)ccc1OC (centres unmarked),1.54%
21,Cc1ccc2c(c1)c(-c1ccccc1)c(-c1ccccc1)n2CC(O)CN1CCOCC1 (centres unmarked),-2.91%
